Measured values from PubChem BioAssay AID1347417 (National Center for Advancing Translational Sciences (NCATS), 2020).
In all, about 120,000 compounds went through this assay and about 5,300 (4.4%) were called active. Inconclusive means that the source gave no clear call. Such entries were picked first, then a sample of the others. Calls come from the whole dose curve; as a rule, active = well fitted inhibition curve with a large enough effect; inconclusive = small, poorly fitted or top-dose-only effect; inactive = no such curve, though single readings can be large or run the other way. Potencies of inconclusive entries are doubtful fits and often do not repeat.

Assay: qHTS Primary assay for Inhibitors of Plasmodium falciparum Dd2 growth in vitro; note: nearly all actives have a fitted effect of over 65% in size
Conditions: P. falciparum Dd2 growth, SYBR Green, 72 h; series mostly up to 28.9 µM
How it was run: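 Readout: SYBR Green fluorescence, 485 nm excitation, 535 nm emission, after ~16 h lysis at 37C. Before that, Dd2-infected red cells (2.5% hematocrit) grew 72 h with compound, 29 uM top final concentration.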
Potency is the fitted concentration of half-maximal effect; tags give direction and shape of the fitted curve.

SMILES | Potency
Cc1ccc(-c2nnc(Nc3ccc(Br)cc3)c3ccccc23)cc1S(=O)(=O)N1CCN(C)CC1 | active: 5.62 µM
CCN(c1ccccc1)C(CNS(=O)(=O)c1ccccc1)c1ccccc1 (centres undefined) | inconclusive: 10 µM [inhibitor, single point]
CCCc1noc(-c2cccn3c(CNC(=O)CCc4ccccc4)nnc23)n1 | inactive
Cc1ncsc1C(=O)N1CCC2(CC1)OC(=O)N(Cc1ccccc1F)C2(C)c1ccccc1 (centres undefined) | inconclusive: 1.58 µM [inhibitor, single point]
O=C(Nc1ccc(Cl)cc1)N1CCCN(c2nc3ncccc3o2)CC1 | inactive
Cc1nc(-c2c3n(c(=O)n(CC(=O)Nc4ccc(Cl)cc4)c2=O)CCCC3)no1 | inactive
Cc1ccc(NC(=O)CSc2nc(C)c(Cc3ccccc3)c(=O)[nH]2)cc1C | inactive
COc1ncc(-c2ccc3ncn(-c4ccc(F)cc4F)c(=O)c3n2)cn1 | inactive
O=C(NCC1CC1)C1CCCN1c1nc2ncccc2o1 (centres undefined) | inactive
CCn1c(=NC(=O)c2ccc3c(c2)OCCO3)sc2c(C)ccc(OC)c21 | inconclusive: 17.8 µM [inhibitor, single point]
CCOC(=O)C1(Cc2ccc(Cl)cc2)CCN(C(=O)c2cc(C)oc2C)CC1 | inconclusive: 12.6 µM [inhibitor, partial curve]
CCCCOc1ccc(C(=O)N2CCC[C@H]2c2nc(-c3ccc(F)cc3)no2)cc1 | inconclusive: 2.51 µM [inhibitor, partial curve, poor fit]
CCCc1noc(-c2cccn3c(CNC(=O)c4ccc(N(C)C)cc4)nnc23)n1 | inconclusive: 20 µM [inhibitor, partial curve, poor fit]
Cc1[nH]c2ccccc2c1C(c1ccccc1)c1cccs1 (centres undefined) | inconclusive: 17.8 µM [inhibitor, single point]
Cc1ccccc1NC(=O)Cn1c(=O)n(CCc2ccccc2)c(=O)c2sc3ccccc3c21 | inconclusive: 1.26 µM [inhibitor, partial curve, poor fit]
COc1ccc(CCN2C(=O)c3[nH]nc(-c4ccccc4O)c3C2c2cccc(OC)c2)cc1 (centres undefined) | active: 10 µM
Cc1cc(C(F)(F)F)nn1-c1nc(-c2ccccc2)cc(C(F)(F)F)n1 | inconclusive: 11.2 µM [inhibitor, partial curve, poor fit]
CCOC(=O)c1ccc(NC(=O)CC2C(=O)N(c3ccc(C)cc3)C(=O)N2C2CCCCC2)cc1 (centres undefined) | inactive
N#Cc1ccc(C2c3nc[nH]c3CCN2Cc2ccc3ccccc3n2)cc1 (centres undefined) | inconclusive: 12.6 µM [inhibitor, partial curve]
